Reference: ChEMBL document CHEMBL4888484, “Replenishing the malaria drug discovery pipeline: Screening and hit evaluation of the MMV Hit Generation Library 1 (HGL1) against asexual blood stage Plasmodium falciparum ,using a nano luciferase reporter read-out” (2022)
The whole screen tested about 150,000 compounds, of which about 540 (0.36%) showed an effect of 50% or more. The list shows a part of the results.

These molecules were tested on Plasmodium falciparum (assay: Primary screen in NF54 nanoGlo assay, in single point, at 2uM, 72h; a lower Z score goes with more inhibition). Settings: timepoint 72 hour.
Format: functional, Erythrocyte

Going from `Cc1cccc(-c2nccc(Oc3ccc(C(=O)Nc4ccccc4)cc3)n2)c1` to `N#Cc1cccc(NC(=O)COc2ccc(C(=O)c3ccc(F)cc3)cc2)c1`, the “% Inhibition” value falls from 1% to -4%.

First: O=C(CN1C(=O)c2ccccc2C1=O)OCCOC(c1ccccc1)c1ccccc1
Second: O=C(CCc1nc2ccccc2s1)c1ccc(Br)cc1
The “% Inhibition” value of the first is higher: -1% for the first, -2% for the second.

First: Fc1ccc(-c2n[nH]cc2CN2CCCC3(C2)OCCO3)cc1
Second: Cc1[nH]ccc1C(=O)N1CCC2(CC1)CC(=O)N(Cc1ccccc1)C2
The “% Inhibition” value of the first is lower: -13% for the first, 2% for the second.

Going from `Cc1ccc(-n2ncc3c(N4CCCN(C(=O)NC(C)(C)C)CC4)nc(C)nc32)c(C)c1` to `Cc1cc(OC2CCN(C(=O)[C@@H]3CC=CCC3)CC2)nc(C)n1`, the “% Inhibition” value falls from -5% to -18%.

Going from `N#CCC[C@H](C#N)Cn1nc(N2CCCC2)sc1=S` to `CCCc1noc(CN2CCCN(C)c3cc(F)ccc32)n1`, the “% Inhibition” value falls from -2% to -7%.

First: N#Cc1cccc(NC(=O)N2CC[C@@H]3CNC[C@@H]32)c1
Second: O=C(Nc1ccc2c(c1)OCO2)N1CCC(n2cc(C3CCCC3)nn2)CC1
The “% Inhibition” value of the first is higher: 2% for the first, -13% for the second.

Going from `Cc1c(C(=O)N2CCN(C)Cc3ccccc32)nnn1Cc1ccc(F)cc1F` to `O=C(Nc1ccc(F)cc1F)c1ccc(S(=O)(=O)N2CCCCC2)o1`, the “% Inhibition” value falls from -10% to -14%.

First: CO[C@@H](C)c1cccc(NCC(=O)Nc2cc(C)nn2C(C)(C)C)c1
Second: COc1cnc(CN(C)Cc2cc(C)cc(C)n2)cc1O
The “% Inhibition” value of the first is lower: 0% for the first, 2% for the second.

Going from `CN1C(=O)N[C@@H]2CN(C(=O)NC3CCC3)CC[C@@H]21` to `N[C@@H]1CCN(C(=O)Cc2ccc(Cl)cc2Cl)C1`, the “% Inhibition” value falls from -11% to -19%.

Going from `Cc1cc(Cl)ccc1OCC(=O)Nc1ncc(C)c(-c2ccccc2)n1` to `COc1ccccc1[C@@H](NC(=O)Cc1nnc(C)o1)c1ccco1`, the “% Inhibition” value falls from 8% to -5%.

First: O=C(N[C@H]1C[C@H]2OCC[C@@H]12)c1ccccc1OCc1ccccc1
Second: O=C(NC[C@H]1CCCN(Cc2cccc3nonc23)C1)c1ccccc1Cl
The “% Inhibition” value of the first is higher: -5% for the first, -8% for the second.

Compared with `Cc1nn(CC(=O)N(C)[C@@H](C)c2nccs2)c(=O)n1Cc1ccccc1`, `Cc1n[nH]c(C)c1CN(C)CCCCc1ccccc1` is higher in “% Inhibition” value: -5% for the first, 8% for the second.

Going from `CCCc1cc(C(=O)NC(c2ccccn2)[C@H]2C[C@@H](O)C2)[nH]n1` (stereo partly drawn) to `Cc1nccc(NC(=O)c2cc(Br)cnc2C2CC2)n1`, the “% Inhibition” value rises from -2% to 1%.

Going from `CC1CC(C)CN(c2snnc2C(N)=O)C1` (stereo not drawn) to `NC(=O)c1ccc(N2CCC3(CCCC3)CC2)nn1`, the “% Inhibition” value rises from -22% to -1%.

First: CC(C)c1nnc(NC(=O)C2CC=CCC2C(=O)N2CCOCC2)s1 (stereo not drawn)
Second: Cc1c(C(=O)N2CC3(CCCCC3)[C@@H]2C(C)C)nnn1C
The “% Inhibition” value of the first is higher: -3% for the first, -7% for the second.

Compared with `CCCn1cc(NC(=O)NCc2snnc2C(C)C)nn1`, `Cc1c[nH]c([C@H](C)NC(=O)CCCn2cnnn2)n1` is higher in “% Inhibition” value: -15% for the first, -11% for the second.

Compared with `Cc1n[nH]cc1CN(C)C(=O)c1cccn1C`, `O=C(c1cscn1)N1CCCc2cccc(Cl)c21` is lower in “% Inhibition” value: -8% for the first, -12% for the second.

Compared with `Cc1nc(C)c(C)c(NC[C@]2(c3ccccc3)C[C@H](O)C2)n1`, `CC[C@H](Oc1ccccc1C)c1nnc(-c2ccsc2)o1` is higher in “% Inhibition” value: 0% for the first, 6% for the second.

First: COc1cccc(C(=O)NCc2ccc3c(c2)CCN3C(=O)c2ccncc2)c1
Second: Cc1cc(=O)[nH]c2ccc(-c3cccc(C(=O)NCCN4CCCCC4)c3)cc12
The “% Inhibition” value of the first is lower: -20% for the first, -2% for the second.

Compared with `Cc1ccc(O)c(NC(=O)[C@H](C)S(C)(=O)=O)c1`, `C=CCNC(=O)c1cc(F)c(O)c(Cl)c1` is lower in “% Inhibition” value: 4% for the first, -15% for the second.

Going from `CC(C)[C@H](C#N)NC(=O)c1cnns1` to `N#Cc1cnc(Nc2ccc(Cl)cc2)c(C#N)c1Nc1ccccc1`, the “% Inhibition” value rises from -7% to -5%.

First: c1ccc(CCC[C@H]2CN(c3cnccn3)CCO2)cc1
Second: Cn1ncc2c(Oc3ccc4c(c3)CCC4)ncnc21
The “% Inhibition” value of the first is lower: -9% for the first, 26% for the second.

Going from `Cc1cccc(-c2nccc(Oc3ccc(C(=O)Nc4ccccc4)cc3)n2)c1` to `N#Cc1cccc(NC(=O)COc2ccc(C(=O)c3ccc(F)cc3)cc2)c1`, the Z score rises from -0.09 to 0.49.

Going from `O=C(CN1C(=O)c2ccccc2C1=O)OCCOC(c1ccccc1)c1ccccc1` to `O=C(CCc1nc2ccccc2s1)c1ccc(Br)cc1`, the Z score rises from 0.1 to 0.2.

First: Fc1ccc(-c2n[nH]cc2CN2CCCC3(C2)OCCO3)cc1
Second: Cc1[nH]ccc1C(=O)N1CCC2(CC1)CC(=O)N(Cc1ccccc1)C2
The Z score of the first is higher: 1.76 for the first, -0.37 for the second.

Compared with `Cc1ccc(-n2ncc3c(N4CCCN(C(=O)NC(C)(C)C)CC4)nc(C)nc32)c(C)c1`, `Cc1cc(OC2CCN(C(=O)[C@@H]3CC=CCC3)CC2)nc(C)n1` is higher in Z score: 0.95 for the first, 3.47 for the second.

First: N#CCC[C@H](C#N)Cn1nc(N2CCCC2)sc1=S
Second: CCCc1noc(CN2CCCN(C)c3cc(F)ccc32)n1
The Z score of the first is lower: 0.22 for the first, 0.97 for the second.

First: N#Cc1cccc(NC(=O)N2CC[C@@H]3CNC[C@@H]32)c1
Second: O=C(Nc1ccc2c(c1)OCO2)N1CCC(n2cc(C3CCCC3)nn2)CC1
The Z score of the first is lower: -0.28 for the first, 2.62 for the second.

First: Cc1c(C(=O)N2CCN(C)Cc3ccccc32)nnn1Cc1ccc(F)cc1F
Second: O=C(Nc1ccc(F)cc1F)c1ccc(S(=O)(=O)N2CCCCC2)o1
The Z score of the first is higher: 1.56 for the first, 1.23 for the second.

Going from `CO[C@@H](C)c1cccc(NCC(=O)Nc2cc(C)nn2C(C)(C)C)c1` to `COc1cnc(CN(C)Cc2cc(C)cc(C)n2)cc1O`, the Z score falls from -0.09 to -0.23.

Compared with `CN1C(=O)N[C@@H]2CN(C(=O)NC3CCC3)CC[C@@H]21`, `N[C@@H]1CCN(C(=O)Cc2ccc(Cl)cc2Cl)C1` is higher in Z score: 0.97 for the first, 2.21 for the second.

Going from `Cc1cc(Cl)ccc1OCC(=O)Nc1ncc(C)c(-c2ccccc2)n1` to `COc1ccccc1[C@@H](NC(=O)Cc1nnc(C)o1)c1ccco1`, the Z score rises from -1.13 to 0.84.

Going from `O=C(N[C@H]1C[C@H]2OCC[C@@H]12)c1ccccc1OCc1ccccc1` to `O=C(NC[C@H]1CCCN(Cc2cccc3nonc23)C1)c1ccccc1Cl`, the Z score rises from 0.51 to 1.2.

First: Cc1nn(CC(=O)N(C)[C@@H](C)c2nccs2)c(=O)n1Cc1ccccc1
Second: Cc1n[nH]c(C)c1CN(C)CCCCc1ccccc1
The Z score of the first is higher: 0.64 for the first, -1.53 for the second.

Compared with `CCCc1cc(C(=O)NC(c2ccccn2)[C@H]2C[C@@H](O)C2)[nH]n1` (stereo partly drawn), `Cc1nccc(NC(=O)c2cc(Br)cnc2C2CC2)n1` is lower in Z score: 0.28 for the first, -0.26 for the second.

Going from `CC1CC(C)CN(c2snnc2C(N)=O)C1` (stereo not drawn) to `NC(=O)c1ccc(N2CCC3(CCCC3)CC2)nn1`, the Z score falls from 2.62 to 0.08.

Compared with `CC(C)c1nnc(NC(=O)C2CC=CCC2C(=O)N2CCOCC2)s1` (stereo not drawn), `Cc1c(C(=O)N2CC3(CCCCC3)[C@@H]2C(C)C)nnn1C` is higher in Z score: 0.57 for the first, 0.97 for the second.

Compared with `CCCn1cc(NC(=O)NCc2snnc2C(C)C)nn1`, `Cc1c[nH]c([C@H](C)NC(=O)CCCn2cnnn2)n1` is higher in Z score: 1.91 for the first, 2.1 for the second.

Compared with `Cc1n[nH]cc1CN(C)C(=O)c1cccn1C`, `O=C(c1cscn1)N1CCCc2cccc(Cl)c21` is higher in Z score: 0.92 for the first, 1.51 for the second.

Going from `Cc1nc(C)c(C)c(NC[C@]2(c3ccccc3)C[C@H](O)C2)n1` to `CC[C@H](Oc1ccccc1C)c1nnc(-c2ccsc2)o1`, the Z score falls from 0.01 to -0.98.

Compared with `COc1cccc(C(=O)NCc2ccc3c(c2)CCN3C(=O)c2ccncc2)c1`, `Cc1cc(=O)[nH]c2ccc(-c3cccc(C(=O)NCCN4CCCCC4)c3)cc12` is lower in Z score: 1.84 for the first, 0.18 for the second.

Going from `Cc1ccc(O)c(NC(=O)[C@H](C)S(C)(=O)=O)c1` to `C=CCNC(=O)c1cc(F)c(O)c(Cl)c1`, the Z score rises from -0.52 to 2.22.

Compared with `CC(C)[C@H](C#N)NC(=O)c1cnns1`, `N#Cc1cnc(Nc2ccc(Cl)cc2)c(C#N)c1Nc1ccccc1` is lower in Z score: 0.92 for the first, 0.69 for the second.

Going from `c1ccc(CCC[C@H]2CN(c3cnccn3)CCO2)cc1` to `Cn1ncc2c(Oc3ccc4c(c3)CCC4)ncnc21`, the Z score falls from 1.32 to -3.55.
